# Measured values as given in PubChem BioAssay AID686979 (National Center for Advancing Translational Sciences (NCATS), 2013).
# The campaign covered roughly 420,000 compounds. About 50,000 (12%) were called active. Inconclusive results, whose numbers are uncertain, are shown with a selection of clear calls. Calls follow the shape of the dose curve; as a rule, active = well fitted inhibition curve with a large enough effect; inconclusive = small, poorly fitted or top-dose-only effect; inactive = flat fitted curve, though single readings scatter. Potencies of inconclusive entries are left out as doubtful fits.
# Test: qHTS for Inhibitors of human tyrosyl-DNA phosphodiesterase 1 (TDP1): qHTS in cells in presence of CPT; also: nearly all actives have a fitted effect of over 55% in size
# Conditions: chicken DT40 Tdp1-/-;hTDP1 cells + 20 nM CPT, ATP luminescence, 48 h; series mostly up to 46.2 µM
# Outline: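 Chicken DT40 Tdp1-/- cells complemented with human TDP1, 400 cells/well, exposed to compounds plus 20 nM camptothecin for at least 48 h at 37 C; viability read as ATP content by CellTiter-Glo luminescence.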
# Potency is read from the fitted curve at half-maximal effect; tags tell the direction and shape of the fitted curve.
row,Compound,Potency
1,CC(C)CNC(=O)C(=O)NCCCN1CCOCC1,"inconclusive [inhibitor, partial curve]"
2,COC(=O)c1c(NC(=O)c2c(OC)cccc2OC)sc2c1C(C(=O)OC)CC2 (stereo unspecified),"inconclusive [inhibitor, single point]"
3,CSc1ccc(CN(C)CC(=O)NCCc2ccccc2)cc1,inactive
4,Cc1ccc(-c2nc3ccc(C)cn3c2Cc2ccsc2)cc1,"inconclusive [inhibitor, single point]"
5,CN(CC1CCCO1)S(=O)(=O)c1ccc(C(=O)Nc2ccc(F)cc2)cc1 (stereo unspecified),"inconclusive [inhibitor, single point]"
6,FC(F)(F)c1ccccc1-c1nc(-n2ccnc2)c2ccccc2n1,inactive
7,CCOC(=O)c1ccc(CN(Cc2ccc(F)cc2)S(=O)(=O)c2cc(C(=O)Nc3ccccc3CC)ccc2F)cc1,"inconclusive [inhibitor, partial curve]"
8,C[n+]1c(-c2ccccc2)cc2c(=Cc3ccccc3)c3ccccc3n21,active: 0.517 µM
9,COC(=O)C1=C(C)NC2=C(C(=O)CC(C)(C)C2)C1c1ccccn1 (stereo unspecified),inactive
10,CC(C)(C)C1CCc2c(C(=O)N/N=C/c3cccs3)csc2C1 (stereo unspecified),active: 14.1 µM
11,Cc1ccc2ccc3cc(C(=O)Nc4ccc(C)c(F)c4)nc3c2[nH]1,"inconclusive [inhibitor, single point]"
12,CN(C)C(CNC(=O)CCc1nc2sc3c(c2c(=O)[nH]1)CCCC3)c1ccccc1 (stereo unspecified),"inconclusive [inhibitor, single point]"
13,CCN(CC)S(=O)(=O)c1ccc2c(c1)N(CC(=O)N1CCC(C(N)=O)CC1)C(=O)CO2,inactive
14,CCOc1cc(CN2CCN(c3cccc(C(F)(F)F)c3)CC2)ccc1OC,"inconclusive [inhibitor, single point]"
15,CCOC(=O)N1CCN(S(=O)(=O)N2CCCC(C(=O)NCc3ccccc3OC)C2)CC1 (stereo unspecified),"inconclusive [inhibitor, single point]"
16,CCOc1ccc(/C=C/c2ccc3ccccc3n2)cc1OCC,active: 2.82 µM
17,CC(=O)N1CCCC1c1nc2ccccc2n1Cc1cc(C)ccc1C (stereo unspecified),active: 23.1 µM
18,CCCSC1=C(C#N)C(c2ccc(O)c(OC)c2)CC(=O)N1 (stereo unspecified),"inconclusive [inhibitor, single point]"
19,COc1ccccc1NC(=O)C1=C(C)Nc2nc(-c3cccnc3)nn2C1c1ccccn1 (stereo unspecified),"inconclusive [inhibitor, single point]"
20,O=C1CC(=O)N2CCSC2=N1,inactive
21,CCSc1nc2sc3c(c2c(=O)n1-c1ccc(C)cc1)CCN(C)C3,"inconclusive [inhibitor, partial curve, poor fit]"
22,O=C(NCC(=O)N(c1cccc(F)c1)C(C(=O)NC1CCCC1)c1ccncc1)c1cccs1 (stereo unspecified),inactive
23,c1ccc(CSc2cc3ccccc3[nH]2)cc1,"inconclusive [inhibitor, single point]"

row,Compound,Potency
1,CCOC(=O)N1CCC(NC(=S)Nc2ccc3nc(N4CCN(CC)CC4)cc(C)c3c2)CC1,"inconclusive [inhibitor, single point]"
2,CC1=C([N+](=O)[O-])C(c2cccc(Br)c2)C2=C(N1)c1ccccc1C2=O (stereo unspecified),active: 1.03 µM
3,O=C(Nc1ccccc1F)c1cnn2c1NC(=C1CC1)C=C2C(F)F,inactive
4,Cc1cccnc1C(NC(=O)C1CCN(Cc2ccc3ccccc3n2)CC1)c1ccc(Cl)cc1 (stereo unspecified),"inconclusive [inhibitor, single point]"
5,O=C(O)Cn1nnc(COc2ccccc2)n1,inactive
6,COc1ccc([C@H]2C[C@H](O)[C@@H](n3cc(-c4ccc(F)cc4)nn3)CN2C(=O)C2CCCCC2)cc1,inactive
7,CCN1C(=O)c2ccccc2S(=O)c2ccc(C(=O)NCCN(CC(C)C)CC(C)C)cc21 (stereo unspecified),"inconclusive [inhibitor, single point]"
8,c1ccc2c(c1)CCN2CCN1CCc2ccccc21,"inconclusive [inhibitor, single point]"
9,Cn1c(=O)n(C)c2cc(N3CCOCC3)c(NS(=O)(=O)c3ccc(Br)cc3)cc21,active: 14.6 µM
10,CCC(Oc1ccccc1)C(=O)Nc1ccccn1 (stereo unspecified),"inconclusive [inhibitor, single point]"
11,O=C(/C=C/c1ccc(F)cc1)NCCCN1CCN(CCCNC(=O)/C=C/c2ccc(F)cc2)CC1,"inconclusive [inhibitor, single point]"
12,CCOc1cc(CNCCSc2nnnn2C)cc(Cl)c1OCc1ccc(Cl)cc1,active: 13 µM
13,COc1cc(OC)cc(C(=O)N[C@@H](CCSC)c2nc3ccccc3[nH]2)c1,"inconclusive [inhibitor, partial curve]"
14,Cc1cccc(N2CCN(C(=O)CCCn3ncn4c(cc5occc54)c3=O)CC2)c1C,"inconclusive [inhibitor, single point]"
15,COc1ccccc1N1CCN(c2nc3ccccc3nc2C(C#N)C(=O)OC(C)C)CC1 (stereo unspecified),"inconclusive [inhibitor, single point]"
16,COc1ccc(-c2cc(C(=O)NCCc3ccccc3)c3c(-c4ccccc4)[nH]nc3n2)cc1,"inconclusive [inhibitor, single point]"
17,Cc1csc(NC(=O)c2ccc(COc3ccccc3)o2)n1,"inconclusive [inhibitor, single point]"
18,CCC(C)c1ccc(S(=O)(=O)N2CCN(C(=O)COc3ccc4c(C)cc(=O)oc4c3)CC2)cc1 (stereo unspecified),"inconclusive [inhibitor, single point]"
19,Nc1ccccc1C(=O)N=Nc1[nH]c(N)c2ccccc12,inactive
20,Fc1ccccc1CNC(=S)NC1CCCCC1,inactive
21,O=C(O)c1ccc(Cn2cnc3c(=S)nc[nH]c32)cc1,inactive
22,Cc1cc(NC(=O)CSc2nnc(-c3ccccc3F)n2C)no1,inactive
23,COC(=O)C(NC(=O)c1ccccc1)=C(C)C,active: 18.4 µM
